Experimental findings from the supplement of paper PMC9046079 are described below.

Structures can show the parent of a compound that is named as a salt. ± gives the standard deviation of the averaged measurements. This is one part of the list.
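Note: ISC-enriched organoid precursors grown as 2.5D pseudo-monolayer on Matrigel, compound given on day 0 and day 3, plate values LOESS-normalized before median fold change, three murine donors.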

For one assay, the system named is murine small intestinal organoids (ENR+CD Paneth differentiation). Briefly: basal (non-stimulated) secreted lysozyme activity relative to plate median (log10 fold change); higher = more Paneth cell lysozyme secretion. As to conditions: 0.08 µM; 6 d.
Regarding `CC(NC(=O)C(O)c1cc(F)cc(F)c1)C(=O)NC1C(=O)N(C)c2ccccc2-c2ccccc21` (centres undefined), the “basal (log10)” value turned out to be 0.0398 ± 0.12.
Same read-out and setting: under `O=C(NCc1cccc(O)c1)Nc1nc(-c2ccncc2)cs1` stands -0.044 ± 0.049; under `COc1cc2nc(N3CCN(C(=O)C4COc5ccccc5O4)CC3)nc(N)c2cc1OC` (centres undefined) [Doxazosin Mesylate], 0.0728 ± 0.051.
Same read-out and setting: under `CC(C)Oc1ccc(-c2cnc3c(-c4ccnc5ccccc45)cnn3c2)cc1` stands 0.0178 ± 0.04; under `CCc1nc(N)nc(N)c1-c1ccc(Cl)cc1` [Pyrimethamine], -0.0683 ± 0.14.
Still for that read-out and setting: under `CS(=O)(=O)N1CCN(Cc2cc3nc(-c4cccc5[nH]ncc45)nc(N4CCOCC4)c3s2)CC1` stands 0.00801 ± 0.039; under `Cc1ccc(S(=O)(=O)n2c(N)nc3ccccc32)cc1` [ML130 (Nodinitib-1)], 0.0283 ± 0.05; under `C=CC(=O)Nc1cccc(Nc2nc(Nc3ccc(OCCOC)cc3)ncc2F)c1`, 0.0954 ± 0.13.
On to `CC(C)C[C@H](NC(=O)[C@H](Cc1ccccc1)NC(=O)c1cnccn1)B(O)O` [Bortezomib (PS-341)], for which the “basal (log10)” value was -0.148 ± 0.061.
With `CC(C)(C)c1cc(NC(=O)Nc2ccc(-c3cn4c(n3)sc3cc(OCCN5CCOCC5)ccc34)cc2)no1` [Quizartinib (AC220)], the “basal (log10)” value was -0.0303 ± 0.2.
Consider `O=C(/C=C/n1cnc(-c2cc(C(F)(F)F)cc(C(F)(F)F)c2)n1)N1CC(F)(F)C1`, for which the “basal (log10)” value worked out at 0.0565 ± 0.052.
Same read-out and setting: under `Cn1cc(/C=C2\C(=O)Nc3cccnc32)c2ccccc21` stands 0.0459 ± 0.0076; under `N#CC1(c2ccc(NC(=O)c3cccnc3NCc3ccncc3)cc2)CCCC1` [Apatinib], 0.103 ± 0.086; under `NC(=O)c1cccc(-c2cccc(OC(=O)NC3CCCCC3)c2)c1`, 0.0479 ± 0.069.
On the same count and under the same terms, under `COc1ccc(COc2ccc(Cc3cnc(N)nc3N)cc2OC)cc1` stands 0.00638 ± 0.084.
Same read-out and setting: under `Cc1ccc(S(=O)(=O)OCC(=O)Nc2ccc(C(=O)O)c(O)c2)cc1` stands 0.0116 ± 0.071; under `CCN(c1cc(-c2ccc(CN3CCOCC3)cc2)cc(C(=O)NCc2c(C)cc(C)[nH]c2=O)c1C)C1CCOCC1`, 0.0124 ± 0.088.
With `NC(=O)Nc1cc(-c2cccc(F)c2)sc1C(=O)N[C@H]1CCCNC1`, the “basal (log10)” value is 0.00964 ± 0.072.
Same read-out and setting: under `COc1ccc(CNCc2cccc3ccccc23)cc1` stands 0.03 ± 0.037.
The same measure, in the same setting: under `CC(C)CCNC(=O)[C@H](CC(C)C)NC(=O)[C@H]1O[C@@H]1C(=O)O` [Loxistatin Acid (E-64C)] stands 0.147 ± 0.14; under `O=C(O)c1cccc(-c2noc(-c3ccccc3F)n2)c1` [Ataluren (PTC124)], 0.029 ± 0.077.
On the same count and under the same terms, next, `CN(Cc1cnc2nc(N)nc(N)c2n1)c1ccc(C(=O)N[C@@H](CCC(=O)O)C(=O)O)cc1` [Methotrexate]: -0.0969 ± 0.07; `CN1C2CCCC1CC(NC(=O)c1nn(C)c3ccccc13)C2` (centres undefined) [Granisetron HCl]: 0.061 ± 0.13.
Regarding `COc1cc(Br)c(Nc2nc(-c3c(C)nc4ncccn34)cs2)c(Br)c1`, the “basal (log10)” value is -0.0966 ± 0.26.
On the same count and under the same terms, next, `CN[C@@H](C)C(=O)N[C@H](C(=O)N1CCC[C@H]1C(=O)Nc1snnc1-c1ccccc1)C1CCCCC1`: -0.00154 ± 0.031; `O=C1CC(=O)c2c(Cl)c(Cl)c(Cl)c(Cl)c21`: 0.0279 ± 0.058; `COc1cc2c(cc1Cc1cccc(Cl)c1F)c(=O)c(C(=O)O)cn2[C@H](CO)C(C)C` [Elvitegravir (GS-9137, JTK-303)]: -0.0473 ± 0.092.
Same read-out and setting: under `O=[N+]([O-])c1ccc2c(c1)S(=O)(=O)C=C2` [Stattic] stands 0.0711 ± 0.13.
`CC(C)(C)c1cc(/C=C(\C#N)C(N)=S)cc(C(C)(C)C)c1O` [Tyrphostin AG 879]: the “basal (log10)” value is -0.0621 ± 0.0074.
On the same count and under the same terms, under `CN1CCC[C@@H]1CCO[C@](C)(c1ccccc1)c1ccc(Cl)cc1` [Clemastine Fumarate] stands 0.0241 ± 0.11; under `NC(=O)c1ncn([C@@H]2O[C@H](CO)[C@@H](O)[C@H]2O)c1N` [Acadesine], 0.0227 ± 0.058; under `O=C(O)Cc1cccc(OCCCN(Cc2cccc(C(F)(F)F)c2Cl)CC(c2ccccc2)c2ccccc2)c1`, 0.0593 ± 0.14.
In the case of `CNC(=C[N+](=O)[O-])NCCSCc1ccc(CN(C)C)o1` [Ranitidine], the “basal (log10)” value is -0.0239 ± 0.13.
For `O=C(NOC[C@H](O)CO)c1ccc(F)c(F)c1Nc1ccc(I)cc1F`, the “basal (log10)” value was -0.12 ± 0.036.
On the same count and under the same terms, under `COc1ccc2cccc(CCNC(C)=O)c2c1` [Agomelatine] stands 0.026 ± 0.046.
Same read-out and setting: under `CNC(=O)c1cc(Oc2ccc(NC(=O)Nc3cc(C(C)(C)C)nn3-c3ccc4ncccc4c3)c(F)c2)ccn1` [DCC-2036 (Rebastinib)] stands 0.259 ± 0.065; under `CCN(CC)CC(=O)Nc1c(C)cccc1C` [Lidocaine], 0.106 ± 0.055.

Still in this assay, the particulars now being: 0.4 µM; 6 d.
Consider `CC(NC(=O)C(O)c1cc(F)cc(F)c1)C(=O)NC1C(=O)N(C)c2ccccc2-c2ccccc21` (centres undefined), for which the “basal (log10)” value is -0.0499 ± 0.052.
As to `O=C(NCc1cccc(O)c1)Nc1nc(-c2ccncc2)cs1`, the “basal (log10)” value is 0.108 ± 0.29.
Turning to `COc1cc2nc(N3CCN(C(=O)C4COc5ccccc5O4)CC3)nc(N)c2cc1OC` (centres undefined) [Doxazosin Mesylate], the “basal (log10)” value came out at 0.0445 ± 0.082.
On the same count and under the same terms, under `CC(C)Oc1ccc(-c2cnc3c(-c4ccnc5ccccc45)cnn3c2)cc1` stands 0.0265 ± 0.15.
The same measure, in the same setting: under `CCc1nc(N)nc(N)c1-c1ccc(Cl)cc1` [Pyrimethamine] stands 0.0203 ± 0.1; under `CS(=O)(=O)N1CCN(Cc2cc3nc(-c4cccc5[nH]ncc45)nc(N4CCOCC4)c3s2)CC1`, -0.0128 ± 0.032; under `Cc1ccc(S(=O)(=O)n2c(N)nc3ccccc32)cc1` [ML130 (Nodinitib-1)], 0.00699 ± 0.078.
Take `C=CC(=O)Nc1cccc(Nc2nc(Nc3ccc(OCCOC)cc3)ncc2F)c1`: the “basal (log10)” value was determined as 0.0518 ± 0.16.
The same measure, in the same setting: under `CC(C)C[C@H](NC(=O)[C@H](Cc1ccccc1)NC(=O)c1cnccn1)B(O)O` [Bortezomib (PS-341)] stands -0.105 ± 0.064; under `CC(C)(C)c1cc(NC(=O)Nc2ccc(-c3cn4c(n3)sc3cc(OCCN5CCOCC5)ccc34)cc2)no1` [Quizartinib (AC220)], 0.144 ± 0.18; under `O=C(/C=C/n1cnc(-c2cc(C(F)(F)F)cc(C(F)(F)F)c2)n1)N1CC(F)(F)C1`, 0.0857 ± 0.052.
Still for that read-out and setting: under `Cn1cc(/C=C2\C(=O)Nc3cccnc32)c2ccccc21` stands 0.0607 ± 0.038; under `N#CC1(c2ccc(NC(=O)c3cccnc3NCc3ccncc3)cc2)CCCC1` [Apatinib], 0.0376 ± 0.015; under `NC(=O)c1cccc(-c2cccc(OC(=O)NC3CCCCC3)c2)c1`, -0.0165 ± 0.08.
The same measure, in the same setting: under `COc1ccc(COc2ccc(Cc3cnc(N)nc3N)cc2OC)cc1` stands 0.0135 ± 0.06; under `Cc1ccc(S(=O)(=O)OCC(=O)Nc2ccc(C(=O)O)c(O)c2)cc1`, 0.0632 ± 0.039; under `CCN(c1cc(-c2ccc(CN3CCOCC3)cc2)cc(C(=O)NCc2c(C)cc(C)[nH]c2=O)c1C)C1CCOCC1`, -0.0233 ± 0.034.
Turning to `NC(=O)Nc1cc(-c2cccc(F)c2)sc1C(=O)N[C@H]1CCCNC1`, the “basal (log10)” value was -0.159 ± 0.091.
With `COc1ccc(CNCc2cccc3ccccc23)cc1`, the “basal (log10)” value is -0.0134 ± 0.029.
Same read-out and setting: next, `CC(C)CCNC(=O)[C@H](CC(C)C)NC(=O)[C@H]1O[C@@H]1C(=O)O` [Loxistatin Acid (E-64C)]: 0.0613 ± 0.13.
Same read-out and setting: under `O=C(O)c1cccc(-c2noc(-c3ccccc3F)n2)c1` [Ataluren (PTC124)] stands 0.0415 ± 0.11; under `CN(Cc1cnc2nc(N)nc(N)c2n1)c1ccc(C(=O)N[C@@H](CCC(=O)O)C(=O)O)cc1` [Methotrexate], -0.0382 ± 0.042.
Same read-out and setting: next, `CN1C2CCCC1CC(NC(=O)c1nn(C)c3ccccc13)C2` (centres undefined) [Granisetron HCl]: -0.00237 ± 0.047.
For the compound `COc1cc(Br)c(Nc2nc(-c3c(C)nc4ncccn34)cs2)c(Br)c1`, the “basal (log10)” value was found to be 0.00882 ± 0.039.
Same read-out and setting: under `CN[C@@H](C)C(=O)N[C@H](C(=O)N1CCC[C@H]1C(=O)Nc1snnc1-c1ccccc1)C1CCCCC1` stands -0.0202 ± 0.045.
The same measure, in the same setting: next, `O=C1CC(=O)c2c(Cl)c(Cl)c(Cl)c(Cl)c21`: -0.0131 ± 0.047; `COc1cc2c(cc1Cc1cccc(Cl)c1F)c(=O)c(C(=O)O)cn2[C@H](CO)C(C)C` [Elvitegravir (GS-9137, JTK-303)]: -0.0687 ± 0.071; `O=[N+]([O-])c1ccc2c(c1)S(=O)(=O)C=C2` [Stattic]: 0.00701 ± 0.069.
Same read-out and setting: under `CC(C)(C)c1cc(/C=C(\C#N)C(N)=S)cc(C(C)(C)C)c1O` [Tyrphostin AG 879] stands -0.103 ± 0.08; under `CN1CCC[C@@H]1CCO[C@](C)(c1ccccc1)c1ccc(Cl)cc1` [Clemastine Fumarate], -0.0261 ± 0.051.
Regarding `NC(=O)c1ncn([C@@H]2O[C@H](CO)[C@@H](O)[C@H]2O)c1N` [Acadesine], the “basal (log10)” value was -0.0158 ± 0.042.
The same measure, in the same setting: next, `O=C(O)Cc1cccc(OCCCN(Cc2cccc(C(F)(F)F)c2Cl)CC(c2ccccc2)c2ccccc2)c1`: 0.00154 ± 0.081; `CNC(=C[N+](=O)[O-])NCCSCc1ccc(CN(C)C)o1` [Ranitidine]: -0.0328 ± 0.081; `O=C(NOC[C@H](O)CO)c1ccc(F)c(F)c1Nc1ccc(I)cc1F`: -0.122 ± 0.028.
On the same count and under the same terms, next, `COc1ccc2cccc(CCNC(C)=O)c2c1` [Agomelatine]: 0.0798 ± 0.067; `CNC(=O)c1cc(Oc2ccc(NC(=O)Nc3cc(C(C)(C)C)nn3-c3ccc4ncccc4c3)c(F)c2)ccn1` [DCC-2036 (Rebastinib)]: 0.128 ± 0.02; `CCN(CC)CC(=O)Nc1c(C)cccc1C` [Lidocaine]: 0.0165 ± 0.064.
